Results from PMC4336329 (PLoS ONE, 2015).
The whole screen tested about 310,000 compounds, of which about 2,200 (0.71%) showed an effect of 50% or more. Effects have a minus sign here. Some of the results follow.

target: human ether-à-go-go-related gene (hERG) potassium channel (human, UniProt Q12809); experiment: primary screen, population patch clamp on CHO cells stably expressing hERG
Sequence (Q12809 whole entry, looked up): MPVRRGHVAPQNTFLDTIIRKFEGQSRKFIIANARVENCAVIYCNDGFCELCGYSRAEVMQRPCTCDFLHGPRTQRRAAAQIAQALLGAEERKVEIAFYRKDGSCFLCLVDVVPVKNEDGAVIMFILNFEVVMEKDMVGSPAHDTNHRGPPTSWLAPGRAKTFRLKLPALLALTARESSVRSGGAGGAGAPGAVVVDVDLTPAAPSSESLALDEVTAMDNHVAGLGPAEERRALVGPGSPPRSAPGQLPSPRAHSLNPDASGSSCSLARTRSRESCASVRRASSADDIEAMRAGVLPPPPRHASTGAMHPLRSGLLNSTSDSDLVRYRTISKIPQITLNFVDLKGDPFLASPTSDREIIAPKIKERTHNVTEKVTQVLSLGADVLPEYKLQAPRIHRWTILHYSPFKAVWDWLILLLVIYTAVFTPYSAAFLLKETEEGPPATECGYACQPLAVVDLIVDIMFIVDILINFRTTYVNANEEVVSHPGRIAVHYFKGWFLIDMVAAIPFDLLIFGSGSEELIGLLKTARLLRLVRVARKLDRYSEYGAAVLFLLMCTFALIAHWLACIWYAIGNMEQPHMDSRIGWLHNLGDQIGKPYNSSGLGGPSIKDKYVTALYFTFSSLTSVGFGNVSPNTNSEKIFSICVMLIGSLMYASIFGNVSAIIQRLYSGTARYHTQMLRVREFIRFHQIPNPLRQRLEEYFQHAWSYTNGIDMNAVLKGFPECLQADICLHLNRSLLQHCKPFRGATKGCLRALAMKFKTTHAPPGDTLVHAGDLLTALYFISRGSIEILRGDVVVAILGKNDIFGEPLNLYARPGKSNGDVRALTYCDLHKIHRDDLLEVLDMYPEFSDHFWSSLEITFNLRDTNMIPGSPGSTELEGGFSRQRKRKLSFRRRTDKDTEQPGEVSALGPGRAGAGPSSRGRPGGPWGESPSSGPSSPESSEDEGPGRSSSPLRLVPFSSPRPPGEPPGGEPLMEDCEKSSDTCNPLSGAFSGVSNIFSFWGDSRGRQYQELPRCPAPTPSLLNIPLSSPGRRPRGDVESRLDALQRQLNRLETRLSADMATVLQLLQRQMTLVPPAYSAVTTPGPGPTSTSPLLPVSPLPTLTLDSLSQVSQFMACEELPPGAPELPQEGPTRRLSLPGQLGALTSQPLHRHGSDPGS

Row | Structure (SMILES) | hERG current change (%, negative = inhibition) at 1uM [%]
1 | O=C(Cc1ccccc1)NCCC1=CCCCC1 | 9.71
2 | CCC(=O)c1ccc(OCC(=O)OC(C)C(=O)N2CCc3ccccc32)cc1 (stereo not drawn) | 4.6
3 | O=C(CSc1nccn1-c1ccccc1)NO | 8
4 | COc1ccc(CN2CCC(C(=O)Nc3ccc(Oc4cccnc4)cc3)CC2)cc1 | -41.5
5 | CC(C)c1onc(C(=O)N2CCOCC2)c1[N+](=O)[O-] | 9.92
6 | NNC(=O)CNC(=O)C12CC3CC(CC(C3)C1)C2 | 11.7
7 | O=C(Cn1cnc2c(nnn2Cc2ccccc2F)c1=O)N1CCN(c2ccccc2)CC1 | 5.04
8 | NC(=O)CSc1nnc(Cc2cccs2)n1C1CCCCC1 | 9.22
9 | COc1ccc(C(NC(=O)c2ccc(F)cc2)c2ccccc2)cc1 (stereo not drawn) | -13.2
10 | O.O=c1c2sc3nc(N4CCOCC4)c4c(c3c2nnn1Cc1ccccc1)CCCC4 | 8.41
11 | COc1cccc(NC(=O)Cn2c(=O)n(CCC(=O)NC3CCN(Cc4ccccc4)CC3)c(=O)c3ccccc32)c1 | -7.29
12 | O=C(NC1CCCCC1)C(c1ccncc1)N(Cc1ccc2c(c1)OCO2)C(=O)C(F)(F)F (stereo not drawn) | 5.84
13 | O=S(=O)(NCc1ccccc1)c1ccc(Cl)cc1 | 15.7
14 | COc1ccc(S(=O)(=O)N2CCN(c3c(C)cccc3C)CC2)cc1OC | 7.19
15 | Cc1oc(-c2ccccc2Cl)nc1CS(=O)(=O)CC(=O)NC1CCCC1 | -1.67
16 | O=C(CNC(=O)c1ccccc1F)NC1CC1 | 11
17 | Fc1cccc(Cl)c1Cn1nnc2c(N3CCC4(CC3)OCCO4)ncnc21 | 13.7
18 | Cc1ccc(C(=O)Oc2ccc([N+](=O)[O-])cc2)cc1S(=O)(=O)N1CCCCCC1 | 9.64
19 | CCOC(=O)C1(CC2CCCCO2)CCN(Cc2c(C)cc(C)cc2-n2cccn2)CC1 (stereo not drawn) | -84.1

Row | Structure (SMILES) | hERG current change (%, negative = inhibition) at 1uM [%]
20 | c1ccc(NC2=Nc3cccc4cccc2c34)cc1 | 12.1
21 | COc1ccc(OC)c(CCNC(=O)C(=O)Nc2ccc3nc4n(c(=O)c3c2)CCCCC4)c1 | 6.8
22 | CC(NC(=O)c1ccc(=O)oc1)c1ccccc1 (stereo not drawn) | 3.24
23 | CN1CCN(C(=O)/C=C/c2ccc([N+](=O)[O-])cc2)CC1 | -48.5
24 | Cc1ccc(NS(=O)(=O)c2ccc(CCC(=O)NC3CC3)cc2)cc1 | 9.77
25 | CC1CCCCN1C(=O)CCNS(=O)(=O)c1ccc2c(c1)c(=O)n(C)c(=O)n2C (stereo not drawn) | 5.35
26 | O=C(CCc1ccccc1)Nc1ccc(NC(=O)c2ccco2)cc1 | 5.34
27 | CC(C)c1nc(Cl)c(C#N)c2c1CCC2 | 9.85
28 | O=C(c1ccccc1Cl)N1CCn2c1nc1ccccc12 | 10.5
29 | Cl.N=c1c2c(n(Cc3ccc([N+](=O)[O-])cc3)c3c1CCC3)CCCC2 | 6.83
30 | COc1ccc(N2CC(C(=O)N/N=C/c3cccs3)CC2=O)cc1 (stereo not drawn) | 9.66
31 | Cc1ccc(C)c(OCCN2CCOCC2)c1 | 13.2
32 | COc1cc2[nH]c(=O)n(Cc3ccc(C(=O)N4CCC(N5CCCCC5)CC4)cc3)c(=O)c2cc1OC | 12.6
33 | COc1ccc(N(CC(=O)NCc2ccco2)C(=O)CCC(=O)Nc2nccs2)c(OC)c1 | -2.41
34 | CC(C)c1ccc(NC(=O)c2cccc(Br)c2)cc1 | 20.9
35 | Cc1cccc(C(=O)NCC(=O)OCC(=O)c2ccc(Cl)s2)c1 | 6.05
36 | O=C(O)c1ccccc1CSc1nc2ccccc2s1 | 18.4
37 | COc1ccc(CCNc2cc(N3CCN(C(=O)c4ccccc4F)CC3)ccc2[N+](=O)[O-])cc1OC | 6.84
38 | CCCN1C(=O)SC(CC(=O)Nc2ccccc2C)C1=O (stereo not drawn) | 13.8

Row | Structure (SMILES) | hERG current change (%, negative = inhibition) at 1uM [%]
39 | CC(C)(C)c1ccc(-c2c(C#N)c(N)nc3c2CCCC3)s1 | 8.26
40 | CC(=O)c1ccc(OCCCC(=O)NC2CCCc3ccccc32)cc1 (stereo not drawn) | 0.526
41 | COc1cccc(-c2nn(-c3ccc(C)cc3)cc2C(=O)NCC(c2cccs2)N2CCOCC2)c1 (stereo not drawn) | 13.2
42 | CN1CCCN(C(=O)c2ccc(Cl)s2)CC1 | -50.5
43 | CCOc1ccccc1/C=N/NC(=O)CSc1n[nH]c(=O)[nH]c1=O | 13.8
44 | COc1ccc2nc(NC(=O)c3ccc(NC(=O)C4CCCO4)cc3)sc2c1 (stereo not drawn) | 15.4
45 | CCCN1C(=O)c2[nH]nc(-c3cc(Cl)c(C)cc3O)c2C1c1ccc(O)c(OC)c1 (stereo not drawn) | 3.99
46 | COC(=O)c1c(C)[nH]c(C(=O)OCC(=O)NC(C)(C)C)c1C | 9.6
47 | CCOC(=O)C1(Cc2cccc(F)c2)CCN(Cc2cnn(CC)c2C)CC1 | 3.09
48 | CNS(=O)(=O)c1ccc(OC)c(-c2nnc3c4ccccc4c(C)nn23)c1.Cl | 15.1
49 | CC(=O)OCCc1c(C)nc2nc[nH]n2c1=O | 14.5
50 | CN(C(=O)COc1cc(=O)n(C)c2ccccc12)c1ccc(Br)cc1 | 5.1
51 | CCOc1ccc(/C(CCC(=O)O)=N/NC(=S)NC(C)C)cc1 | 9
52 | CCOC(=O)/C(C#N)=C/c1c(N2CCN(c3ccccc3)CC2)nc2c(C)cccn2c1=O | 10.8
53 | O=c1c2ccccc2nnn1CSc1nnc2sc3ccccc3n12 | 6.4
54 | CC(=O)N(Cc1nc2sc(C)c(C)c2c(=O)[nH]1)C1CCCC1 | 5.38
55 | Cc1ccccc1CN1CCCC(C(=O)N2CCCCC2)C1.O=C(O)C(=O)O (stereo not drawn) | 14.7
56 | Cc1cc(C(=O)CSc2nn(-c3ccccc3)c(=S)s2)c(C)n1Cc1ccco1 | 10.2
57 | O=P(O)(c1ccc(Cl)cc1)c1ccc(Cl)cc1 | 5.87
